# Measurements reported in the supplement of paper PMC7826260.
# This is one part of the list. Viral Rep nickase domains cut single-stranded DNA in vitro for 1 h at 37 °C with 3 µM enzyme; only the middle of the 90-letter strands is printed. Numbers give uncut DNA relative to the enzyme-free pool, as log2; strong cutting gives strongly negative numbers. There is no active / inactive call. The scaling is to total reads, so uncut sequences can rise above 0 when many others are cut.
# What was measured:
# Test in all cases: uncleaved DNA left, log2 of reads against the no-enzyme library (log2 ratio); higher = less cleavage (more negative = more Rep cleavage of the k-mer); sequences stand for … in CTCGTCCG…ACCGGAGA
# [1] = system: T1, Rep nickase domain of Muscovy duck circovirus
# T1 sequence (Rep 1-111, printed without the tag): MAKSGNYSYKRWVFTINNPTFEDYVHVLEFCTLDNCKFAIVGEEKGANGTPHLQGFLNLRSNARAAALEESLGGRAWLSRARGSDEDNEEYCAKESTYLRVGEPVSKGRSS
# Protocol: (§1)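 A pool of 90-nt single-stranded DNAs with seven random bases just before the constant AC of the nick site (name = the seven bases) was cut by 3 µM recombinant His6-SUMO-tagged Rep nickase domain (300 nM DNA, 50 mM HEPES pH 8.0, 50 mM NaCl, 1 mM MnCl2, 1 h, 37 °C, three replicates). Uncut DNA was amplified and sequenced.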
# [2] = system: T2, Rep nickase domain of banana bunchy top virus
# T2 sequence (Rep 1-94, printed without the tag): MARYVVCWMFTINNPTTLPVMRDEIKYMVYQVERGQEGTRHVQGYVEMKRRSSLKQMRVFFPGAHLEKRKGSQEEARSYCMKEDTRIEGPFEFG
# Protocol: as §1
# [3] = system: T3, Rep nickase domain of cabbage leaf curl virus
# T3 sequence (Rep 1-116, printed without the tag): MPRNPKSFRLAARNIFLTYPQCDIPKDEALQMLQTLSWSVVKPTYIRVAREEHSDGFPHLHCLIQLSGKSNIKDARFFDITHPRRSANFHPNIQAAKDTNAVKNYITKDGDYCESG
# Protocol: as §1
# [4] = system: T4, Rep nickase domain of chickpea chlorotic dwarf virus
# T4 sequence (Rep 1-124, printed without the tag): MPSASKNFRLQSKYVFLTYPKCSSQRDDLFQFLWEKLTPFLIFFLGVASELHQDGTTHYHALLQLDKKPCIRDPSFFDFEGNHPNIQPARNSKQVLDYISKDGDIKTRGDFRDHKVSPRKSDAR
# Protocol: as §1
# [5] = system: T5, Rep nickase domain of faba bean necrotic yellows virus
# T5 sequence (Rep 1-98, printed without the tag): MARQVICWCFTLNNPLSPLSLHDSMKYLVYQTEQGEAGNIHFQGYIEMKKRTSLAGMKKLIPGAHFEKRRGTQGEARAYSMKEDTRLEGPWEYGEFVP
# Protocol: as §1
# [6] = system: T6, Rep nickase domain of maize striate mosaic virus
# T6 sequence (Rep 1-117, printed without the tag): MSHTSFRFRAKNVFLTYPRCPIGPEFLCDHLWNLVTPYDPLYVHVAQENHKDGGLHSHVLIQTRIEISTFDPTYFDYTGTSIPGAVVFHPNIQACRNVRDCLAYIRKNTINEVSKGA
# Protocol: as §1
# [7] = system: T7, Rep nickase domain of porcine circovirus 2
# T7 sequence (Rep 2-116, printed without the tag): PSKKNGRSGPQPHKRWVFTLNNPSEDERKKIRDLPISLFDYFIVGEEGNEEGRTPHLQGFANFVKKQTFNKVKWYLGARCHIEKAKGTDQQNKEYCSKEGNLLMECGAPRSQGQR
# Protocol: as §1
# [8] = system: T8, Rep nickase domain of tomato golden mosaic virus
# T8 sequence (Rep 1-124, printed without the tag): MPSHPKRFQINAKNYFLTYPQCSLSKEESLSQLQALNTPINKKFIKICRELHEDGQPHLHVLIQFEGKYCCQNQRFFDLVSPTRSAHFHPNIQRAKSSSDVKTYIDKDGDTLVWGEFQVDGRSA
# Protocol: as §1
# [9] = system: T9, Rep nickase domain of tomato yellow leaf curl virus
# T9 sequence (Rep 1-136, printed without the tag): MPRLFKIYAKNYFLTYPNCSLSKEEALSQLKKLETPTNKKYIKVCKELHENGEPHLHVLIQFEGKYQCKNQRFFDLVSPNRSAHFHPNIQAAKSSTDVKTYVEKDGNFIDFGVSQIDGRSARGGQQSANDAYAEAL
# Protocol: as §1
# [10] = system: T10, Rep nickase domain of wheat dwarf virus
# T10 sequence (Rep 1-137, printed without the tag): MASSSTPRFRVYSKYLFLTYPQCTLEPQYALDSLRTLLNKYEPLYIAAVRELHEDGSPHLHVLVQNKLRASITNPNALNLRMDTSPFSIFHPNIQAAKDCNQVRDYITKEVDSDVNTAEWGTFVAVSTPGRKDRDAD
# Protocol: as §1
Sequence,uncleaved DNA left (log2) [1],uncleaved DNA left (log2) [2],uncleaved DNA left (log2) [3],uncleaved DNA left (log2) [4],uncleaved DNA left (log2) [5],uncleaved DNA left (log2) [6],uncleaved DNA left (log2) [7],uncleaved DNA left (log2) [8],uncleaved DNA left (log2) [9],uncleaved DNA left (log2) [10]
CGACCAC,-0.0835,0.0137,0.12,0.393,0.0271,0.293,-0.0516,-0.0958,0.059,0.013
AACCGAC,0.158,-0.013,0.0417,0.239,0.126,-0.484,0.0263,0.153,0.0626,0.101
GTAGCAA,0.148,0.181,0.365,0.973,0.0508,1.69,0.136,0.264,0.143,0.156
AGCACGG,-0.0747,0.0597,0.0996,0.674,0.144,1.71,0.147,0.082,0.0366,0.00975
GGGCAGG,0.0634,0.056,0.835,1.81,0.00885,2.19,0.194,0.123,-0.16,0.12
TTATCTG,0.153,0.0916,-0.00442,0.316,0.107,0.542,0.0684,0.0221,0.0437,0.114
GTCAAGG,0.19,0.263,0.428,1.15,0.139,1.96,0.201,0.258,0.177,0.264
ACTATGT,-0.00469,0.0955,-0.141,-0.472,0.123,-0.727,-1.89,0.122,0.0338,-0.0119
CCTGAGA,0.0608,0.0803,0.235,0.239,0.00259,-0.635,0.156,0.156,0.115,-0.0044
AAAGCAT,0.0496,0.036,0.0689,0.568,-0.0231,0.818,0.166,0.0771,-0.049,0.06
ATGCTGT,0.0576,-0.0254,0.0773,0.94,-0.0348,0.874,-0.0329,0.025,-0.0556,-0.107
GGATGTT,-0.778,-0.00176,0.662,1.23,-0.0657,2.02,-2.09,0.0398,-0.0761,0.104
TGGATTA,0.0875,0.111,0.519,0.728,-0.00405,1.4,0.192,0.141,0.171,0.191
CATAAGA,0.067,0.0831,-0.403,-0.569,0.0888,-1.08,0.141,0.168,0.0798,0.00153
GGCGCAT,0.00512,0.0342,0.803,1.87,0.0687,2.29,0.0973,0.0818,-0.0728,0.221
AGTCTCT,0.0334,-0.0346,0.117,-1.24,-0.122,0.313,-3.15,-0.0632,0.0256,-0.0533
TGACAAA,0.0858,0.173,0.476,0.792,0.0742,0.788,0.196,0.163,0.0489,0.272
GAAAGGC,0.0415,0.0634,0.19,0.552,0.0129,0.00315,0.206,0.0383,0.0496,0.0963
GGAGGTC,0.0255,-0.0412,0.599,1.39,0.0309,1.91,-0.00828,-0.0893,-0.101,-0.0481
GTAAATG,0.116,0.0746,-0.0223,0.27,0.0212,-0.0774,0.124,0.0629,0.102,0.153
AGTTTGT,-0.3,-0.118,-0.191,-0.41,-0.0966,-0.693,-3.2,-0.139,0.0402,-0.198
ACCGGGC,-0.18,-0.0558,0.607,0.941,0.0237,1.22,0.119,0.0115,-0.118,-0.0515
CGTAACC,-0.176,-0.0274,-0.267,-0.861,-0.0771,-0.332,-0.707,0.0222,-0.0443,-0.031
CTTGGAC,-0.0479,-0.0987,0.329,1.19,-0.103,1.08,0.199,-0.0649,0.0504,0.0116
TCGAGAT,0.0497,-0.099,0.303,0.956,-0.136,1.35,-0.0867,-0.126,-0.2,-0.0696
AAGTCGC,-0.109,-0.0664,-0.745,-0.99,-0.0263,-1.04,-1.36,-0.0731,-0.0646,-0.139
CAGGCGA,0.101,-0.0838,-0.609,-0.516,0.0512,-0.636,0.134,0.128,0.054,-0.0124
TAAGCCT,-0.192,-0.0686,-3.18,-3.11,-0.0768,-1.38,-0.45,-1.05,-0.0487,-2.09
CCACAGC,0.0711,0.0831,-0.387,-0.521,-0.0747,-1.06,0.201,0.00612,-0.099,0.0524
GGATACC,0.134,0.17,0.27,1.01,0.0506,0.957,0.231,0.131,0.0283,0.221
